From patent US20260042834A1, “ANTI-CORTICOTROPIN-RELEASING HORMONE ANTIBODIES AND POLYCYSTIC OVARY SYNDROME” (HBM ALPHA THERAPEUTICS, INC., priority 2022, published 2026) come the findings set out here.

For test [1], the system named is mouse CRHR2. The experiment in a line: CRH-induced luciferase reporter blocking assay, CHO-CRE-mCRHR2 cells. Conditions: Table 9; mCrhr2. Format: cell-based. Here is the method: To create CHO-CRE-hCRHR1, -hCRHR2, -mCRHR1, and -mCRHR2 reporter cell lines, pcDNA3.1-hCRHR1, -hCRHR2, -mCRHR1, and -mCRHR2 were introduced into CHO-CRE cells established above by electroporation as described above. Selection antibiotics hygromycin at 500 μg/ml and G418 at 1,000 μg/ml were employed. Individual established stable cell lines were characterized by both CRH and forskolin stimulation. […]
(§1) Cells were digested by trypsin-EDTA (Life technologies, Cat #:12604-013), centrifuged at 1,000 rpm for 5 min, resuspended in growth medium, counted using a cell counter, seeded at a concentration of 5,000 cells per 100 μl in 96-well flat plates, and incubated overnight. 50 μl of 4× serially diluted antibodies was added (8 points, 1/4 diluted by growth medium) to plates containing CHO-CRE-hCRHR1 cells, and 50 μl of 4×CRH (4× is 2 nM, final is 0.5 nM) was added. Similarly, 4×CRH (4× is 0.4 nM, final is 0.1 nM) was added to CHO-CRE-hCRHR2 cells and CHO-CRE-mCRHR1 cells, and 4×CRH (4× is 20 nM, final is 5 nM) was added to CHO-CRE-mCRHR2 cells. Next, plates were incubated 4-6 hours at 37° C. in a CO2 incubator. 60 μl of culture medium was removed, to which was added 60 μl of Bio-Glo luciferase, followed by incubation for 10 min at RT. Plates were read in a luciferase plate reader (EnVision, PerkinElmer).
For orientation: In a reporter assay the amount or activity of a reporter protein is the signal.

Test [2] relates to human CRHR2. As to the kind of experiment: CRH-induced luciferase reporter blocking assay, CHO-CRE-hCRHR2 cells. The test is classed as cell-based. Here is the method:
To create CHO-CRE-hCRHR1, -hCRHR2, -mCRHR1, and -mCRHR2 reporter cell lines, pcDNA3.1-hCRHR1, -hCRHR2, -mCRHR1, and -mCRHR2 were introduced into CHO-CRE cells established above by electroporation as described above. Selection antibiotics hygromycin at 500 μg/ml and G418 at 1,000 μg/ml were employed. Individual established stable cell lines were characterized by both CRH and forskolin stimulation.
Activated GPCR proteins increase production of the intracellular cAMP. CHO-CRE-human CRHR1 stable clone 11 was generated by introduction of pcDNA3.1-human CRHR1 under the selection of G418 and hygromycin. Human CRHR1 expression in CHO-CRE-hCRHR1 Clone 11 was confirmed by flow cytometry (data not shown). To further validate that the cell line was functional, CHO-CRE-hCRHR1 Clone 11 cells were treated with forskolin and CRH peptide. […] Subsequently CHO-CRE-hCRHR2 Clone 32, -mCRHR1 Clone 22, and -mCRHR2 Clone 8 cell lines were established using similar methodology and validated with CRH treatment (data not shown).
Blocking CRHR1 by small molecules or neutralization of CRH peptide can reduce luciferase expression if the CRH-CRHR1 system works in CHO-CRE-hCRHR1 cells. Antalarmin, a small molecule CRHR1 antagonist, blocked CRH-mediated luciferase expression in CHO-CRE-hCRHR1 Clone 11 (data not shown). Furthermore, sheep anti-CRH polyclonal antibody reduced CRH-mediated luciferase expression in these cells (data not shown). Likewise, sheep anti-CRH polyclonal antibody blocked CRH-mediated luciferase expression in CHO-CRE-hCRHR2, CHO-CRE-mCRHR1, and CHO-CRE-mCRHR2 cells (data not shown).
as §1

B1: PR302341-43 (antibody)
heavy: QVQLVQSGAEVKKPGASVKVSCKASGYTFTDYFMKWVRQAPGQGLEWMGVINPNNADIFYNQKFKGRVTMTVDKSTSTAYMELSSLRSEDTAVYYCARGTDRALFAYWGQGTLVTVSS[human IgG1 constant region not listed]
light: DVVMTQTPLSSPVTLGQPASISCRSGQSIVHSDGNTYLEWYQQRPGQPPRLLIYKVSNRFSGVPDRFSGSGAGTDFTLKISRVEAEDLGVYYCFQGSHIPWTFGGGTKVEIKRTVAAPSVFIFPPSDEQLKSGTASVVCLLNNFYPREAKVQWKVDNALQSGNSQESVTEQDSKDSTYSLSSTLTLSKADYEKHKVYACEVTHQGLSSPVTKSFNRGEC
By IC50 is commonly meant the concentration needed to halve the response being measured. On to B1, for which the IC50 in test [1] came to 0.999 nM; in test [2] (Table 9, hCRHR2) it was 0.647 nM.

B2: PR302341-54 (antibody)
heavy: QVQLVQSGAEVKKPGASVKVSCKASGYTFTDYFMKWVRQAPGQGLEWMGVINPNQGDIFYNQKFKGRVTMTVDKSTSTAYMELSSLRSEDTAVYYCARGTDRALFAYWGQGTLVTVSS[human IgG1 constant region not listed]
light: DVVMTQTPLSSPVTLGQPASISCRSGQSIVHSSGNTYLEWYQQRPGQPPRLLIYKVSNRFSGVPDRFSGSGAGTDFTLKISRVEAEDLGVYYCFQGSHIPWTFGGGTKVEIKRTVAAPSVFIFPPSDEQLKSGTASVVCLLNNFYPREAKVQWKVDNALQSGNSQESVTEQDSKDSTYSLSSTLTLSKADYEKHKVYACEVTHQGLSSPVTKSFNRGEC
Turning to B2, the IC50 is 2.19 nM in test [1] and 5.05 nM in test [2] (Table 9, hCRHR2).

B3: PR302341-45 (antibody)
heavy: QVQLVQSGAEVKKPGASVKVSCKASGYTFTDYFMKWVRQAPGQGLEWMGVINPNQGDIFYNQKFKGRVTMTVDKSTSTAYMELSSLRSEDTAVYYCARGTDRALFAYWGQGTLVTVSS[human IgG1 constant region not listed]
light: DVVMTQTPLSSPVTLGQPASISCRSGQSIVHSDGNTYLEWYQQRPGQPPRLLIYKVSNRFSGVPDRFSGSGAGTDFTLKISRVEAEDLGVYYCFQGSHIPWTFGGGTKVEIKRTVAAPSVFIFPPSDEQLKSGTASVVCLLNNFYPREAKVQWKVDNALQSGNSQESVTEQDSKDSTYSLSSTLTLSKADYEKHKVYACEVTHQGLSSPVTKSFNRGEC
Regarding B3, the IC50 is about 2.27 nM in test [1] and 1.39 nM in test [2] (Table 9, hCRHR2).

B4: PR302341-46 (antibody)
heavy: QVQLVQSGAEVKKPGASVKVSCKASGYTFTDYFMKWVRQAPGQGLEWMGVINPNNADIFYNQKFKGRVTMTVDKSTSTAYMELSSLRSEDTAVYYCARGTDRALFAYWGQGTLVTVSS[human IgG1 constant region not listed]
light: DVVMTQTPLSSPVTLGQPASISCRSGQSIVHSDANTYLEWYQQRPGQPPRLLIYKVSNRFSGVPDRFSGSGAGTDFTLKISRVEAEDLGVYYCFQGSHIPWTFGGGTKVEIKRTVAAPSVFIFPPSDEQLKSGTASVVCLLNNFYPREAKVQWKVDNALQSGNSQESVTEQDSKDSTYSLSSTLTLSKADYEKHKVYACEVTHQGLSSPVTKSFNRGEC
For the molecule B4, the midpoint of inhibition in test [1], the IC50, lay at 2.78 nM.

B5: PR302341-57 (antibody)
heavy: QVQLVQSGAEVKKPGASVKVSCKASGYTFTDYFMKWVRQAPGQRLEWMGVINPNQGDIFYNQKFKGRVTITRDTSASTAYMELSSLRSEDTAVYYCARGTDRALFAYWGQGTLVTVSS[human IgG1 constant region not listed]
light: DVVMTQSPLSLPVTLGQPASISCRSGQSIVHSDGNTYLEWYQQRPGQSPRLLIYKVSNRFSGVPDRFSGSGSGTDFTLKISRVEAEDLGVYYCFQGSHIPWTFGGGTKVEIKRTVAAPSVFIFPPSDEQLKSGTASVVCLLNNFYPREAKVQWKVDNALQSGNSQESVTEQDSKDSTYSLSSTLTLSKADYEKHKVYACEVTHQGLSSPVTKSFNRGEC
With B5, the IC50 in test [1] is 1.66 nM; in test [2] (Table 9, hCRHR2), 4.67 nM.

B6: PR302341-52 (antibody)
heavy: QVQLVQSGAEVKKPGASVKVSCKASGYTFTDYFMKWVRQAPGQGLEWMGVINPNNADIFYNQKFKGRVTMTVDKSTSTAYMELSSLRSEDTAVYYCARGTDRALFAYWGQGTLVTVSS[human IgG1 constant region not listed]
light: DVVMTQTPLSSPVTLGQPASISCRSGQSIVHSSGNTYLEWYQQRPGQPPRLLIYKVSNRFSGVPDRFSGSGAGTDFTLKISRVEAEDLGVYYCFQGSHIPWTFGGGTKVEIKRTVAAPSVFIFPPSDEQLKSGTASVVCLLNNFYPREAKVQWKVDNALQSGNSQESVTEQDSKDSTYSLSSTLTLSKADYEKHKVYACEVTHQGLSSPVTKSFNRGEC
Turning to B6, the IC50 in test [1] came out at 3.53 nM; in test [2] (Table 9, hCRHR2) it was 3.02 nM.

B7: PR302341-47 (antibody)
heavy: QVQLVQSGAEVKKPGASVKVSCKASGYTFTDYFMKWVRQAPGQGLEWMGVINPNSGDIFYNQKFKGRVTMTVDKSTSTAYMELSSLRSEDTAVYYCARGTDRALFAYWGQGTLVTVSS[human IgG1 constant region not listed]
light: DVVMTQTPLSSPVTLGQPASISCRSGQSIVHSDANTYLEWYQQRPGQPPRLLIYKVSNRFSGVPDRFSGSGAGTDFTLKISRVEAEDLGVYYCFQGSHIPWTFGGGTKVEIKRTVAAPSVFIFPPSDEQLKSGTASVVCLLNNFYPREAKVQWKVDNALQSGNSQESVTEQDSKDSTYSLSSTLTLSKADYEKHKVYACEVTHQGLSSPVTKSFNRGEC
For B7, the IC50 was 2.16 nM in test [1] and 2.45 nM in test [2] (Table 9, hCRHR2).

B8: PR302341-53 (antibody)
heavy: QVQLVQSGAEVKKPGASVKVSCKASGYTFTDYFMKWVRQAPGQGLEWMGVINPNSGDIFYNQKFKGRVTMTVDKSTSTAYMELSSLRSEDTAVYYCARGTDRALFAYWGQGTLVTVSS[human IgG1 constant region not listed]
light: DVVMTQTPLSSPVTLGQPASISCRSGQSIVHSSGNTYLEWYQQRPGQPPRLLIYKVSNRFSGVPDRFSGSGAGTDFTLKISRVEAEDLGVYYCFQGSHIPWTFGGGTKVEIKRTVAAPSVFIFPPSDEQLKSGTASVVCLLNNFYPREAKVQWKVDNALQSGNSQESVTEQDSKDSTYSLSSTLTLSKADYEKHKVYACEVTHQGLSSPVTKSFNRGEC
On to B8, for which the IC50 in test [1] was found to be 3.16 nM; in test [2] (Table 9, hCRHR2), 2.37 nM.

B9: PR302341-58 (antibody)
heavy: QVQLVQSGAEVKKPGASVKVSCKASGYTFTDYFMKWVRQAPGQRLEWMGVINPNNADIFYNQKFKGRVTITRDTSASTAYMELSSLRSEDTAVYYCARGTDRALFAYWGQGTLVTVSS[human IgG1 constant region not listed]
light: DVVMTQSPLSLPVTLGQPASISCRSGQSIVHSDANTYLEWYQQRPGQSPRLLIYKVSNRFSGVPDRFSGSGSGTDFTLKISRVEAEDLGVYYCFQGSHIPWTFGGGTKVEIKRTVAAPSVFIFPPSDEQLKSGTASVVCLLNNFYPREAKVQWKVDNALQSGNSQESVTEQDSKDSTYSLSSTLTLSKADYEKHKVYACEVTHQGLSSPVTKSFNRGEC
In the case of B9, the IC50 in test [1] is 1.72 nM; in test [2] (Table 9, hCRHR2), 3.35 nM.

B10: PR006745: ΔPTM variant of Series 2 mAb PR006669; HCDR2 54DA55 (antibody)
heavy: EVQLVESGGGLVQPGGSLRLSCAASGFTFSDNWMSWVRQAPGKGLEWVANIKQDASENYYVDSVKGRFTISRDNAKNSLYLQMNSLRAEDTAVYYCSRGLALWGWGQGTLVTVSS[human IgG1 constant region not listed]
light: DIVMTHSPLSLPVTPGDPASISCRSSQSLLHSTGYNYLDWYLQKPGQSPQLLIYLGSNRASGVPDRFSGSGSGTDFTLKFIRVEAEDVGVYYCMQALQTPYTFGQGTKLEIKRTVAAPSVFIFPPSDEQLKSGTASVVCLLNNFYPREAKVQWKVDNALQSGNSQESVTEQDSKDSTYSLSSTLTLSKADYEKHKVYACEVTHQGLSSPVTKSFNRGEC
B10: inhibition in test [2] (CHO-CRE-hCRHR2 cells, 0.1 nM CRH) was half-maximal at 61 nM (IC50).
